# Assay results from PubChem BioAssay AID624418 (National Center for Advancing Translational Sciences (NCATS), 2012).
# The campaign covered roughly 410,000 compounds. About 530 (0.13%) were called active. Inconclusive results, whose numbers are uncertain, are shown with a selection of clear calls. The call rests on the fitted dose curve; in most records, active means well fitted inhibition curve with a large enough effect; inconclusive means small, poorly fitted or top-dose-only effect, or another doubt; inactive means no such curve, though single readings can be large or run the other way. Potencies of inconclusive entries are doubtful fits and often do not repeat.
# Assay: qHTS of GLP-1 Receptor Inverse Agonists: Cytotox Screen
# Conditions: HEK293 cAMP-luciferase reporter cells, luminescence, 24 h; activity change, negative = inhibition: at 38.3 µM (top of the series) unless noted
# In short: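 A 23 nL compound transfer followed 12 hours of cell culture at 37 deg C; exposure then lasted 24 hr. Luciferase assay detection reagent was dispensed and plates read for luminescence after a 12 min room-temperature wait.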
# On the % scale 0 is the no-effect control and ±100 the full control effect; potency means the concentration at half of the fitted maximal effect.
Compound,Potency,"activity change, negative = inhibition"
CC(C)c1ccc(/C=C(\NC(=O)c2ccccc2)C(=O)NCCCN2CCOCC2)cc1,"inconclusive: 28.2 µM [inhibitor, single point]",–
O=C(CN1CCOCC1)Nc1cccc(C(=O)Nc2cccc(C(F)(F)F)c2)c1,"inconclusive: 14.1 µM [inhibitor, partial curve, poor fit]",–
O=C(NCc1cccc(Cl)c1)c1ccc(NC(=O)N2CC3CCCN3c3ccccc32)cc1 (stereo not drawn),–,inactive: -5.3%
CC(C)COc1ccc(CNC(=S)Nc2ccccc2)cc1Cl,"inconclusive: 31.6 µM [inhibitor, single point]",–
Clc1ccc(OCCN2CCN(c3ncnc4sccc34)CC2)cc1,–,inactive: 0.888%
O=C(CSc1nc2c(c(=O)n1-c1ccc(F)cc1)SCC2)Nc1ccc2c(c1)OCO2,"inconclusive: 3.55 µM [inhibitor, full curve, poor fit]",–
COc1cccc(C(=O)c2cn(CC(=O)NCc3ccccc3)c3nc(C)ccc3c2=O)c1,–,inactive: -20.4%
FC(F)(F)c1cc(Nc2ccccc2)nc(-c2ccccn2)n1,"inconclusive: 1.58 µM [inhibitor, full curve, poor fit]",–
NC(N)=N/N=C/c1ccc(Br)cc1,"inconclusive: 8.91 µM [inhibitor, partial curve]",–
CCc1ccc(C2c3[nH]c4ccccc4c3CCN2C(=O)c2cc[n+]([O-])cc2)cc1 (stereo not drawn),"inconclusive: 11.2 µM [inhibitor, partial curve]",–
Cc1ccc(S(=O)(=O)Nc2ccc(C(OC(=O)c3ccccc3[N+](=O)[O-])(C(F)(F)F)C(F)(F)F)cc2)cc1,"inconclusive: 28.2 µM [inhibitor, single point]",–
COc1ccc(-c2n[nH]c(C(F)(F)F)c2-c2cc3ccccc3o2)c(O)c1,"inconclusive: 11.2 µM [inhibitor, partial curve, poor fit]",–
Cc1ccc(NC(=O)CN2C(=O)S/C(=C/c3ccncc3)C2=O)cc1,"inconclusive: 20 µM [inhibitor, single point]",–
COc1ccc(OC)c(NS(=O)(=O)c2ccc(-c3coc(C)n3)cc2)c1,"inconclusive: 22.4 µM [inhibitor, partial curve, poor fit]",–
O=C(NCc1ccc(F)cc1)c1cc2c(=O)n3ccccc3nc2s1,–,inactive: 7.46%
O=C(Nc1ccc(F)cc1)c1cccc(C(=O)Nc2ccc(F)cc2)c1,–,inactive: -7.97%
C[C@@H](NC(=O)c1coc(=O)c(Br)c1)c1ccccc1,"inconclusive: 8.91 µM [inhibitor, partial curve, poor fit]",–
CCn1cc(CN(C)C(=O)CSc2nc(-c3ccco3)cc(C(F)(F)F)n2)c(C)n1,"inconclusive: 22.4 µM [inhibitor, single point]",–
CCOC(=O)c1nnn(CC(=O)Nc2ccccc2)c1C(=O)OCC,"inconclusive: 0.398 µM [inhibitor, full curve, poor fit]",–
CCOc1ccc(NC(=O)Cn2c(C)cc3ccccc3c2=O)cc1,–,inactive: 7.57%
COc1cc(C(=O)NNC(=S)NC(=O)/C=C/c2ccccc2)cc(OC)c1OC,"inconclusive: 2 µM [inhibitor, partial curve, poor fit]",–
CN(CCC1CCCCO1)C(=O)CCc1nnc(C2CCCCC2)o1 (stereo not drawn),–,inactive: 2.56%
Cc1ccc(CNC(=O)Cc2coc3cc(C)cc(C)c23)cc1,–,inactive: 14.9%

Compound,Potency,"activity change, negative = inhibition"
CC1CCN(C2=C(NS(=O)(=O)c3ccc(Br)cc3)C(=O)c3ccccc3C2=O)CC1,"inconclusive: 7.94 µM [inhibitor, partial curve]",–
CCOC(=O)NNc1ccc2nonc2c1[N+](=O)[O-],"inconclusive: 11.2 µM [inhibitor, single point]",–
COC(=O)c1c(C)cc(O)cc1O,–,inactive: -1.58%
COc1ccc(N2C(=O)CCC(C(=O)N3CCCCC3)C2c2ccc(F)cc2)cc1 (stereo not drawn),–,inactive: -29.2%
CCCCN(C)C(=O)C1CCCN(c2ncnc3onc(-c4ccc(F)cc4)c23)C1 (stereo not drawn),–,inactive: -5.43%
O=C(Nc1nnc(C2CC2)s1)C1Cc2ccccc2CN1S(=O)(=O)c1ccccc1F (stereo not drawn),"inconclusive: 28.2 µM [inhibitor, single point]",–
CCC(C)[C@H]1CNCCN1CCc1cc(C(F)(F)F)cc(C(F)(F)F)c1 (stereo partly drawn),"inconclusive: 6.31 µM [inhibitor, partial curve, poor fit]",–
O=[N+]([O-])c1ccc(S(=O)(=O)c2cccc(C(F)(F)F)c2)nc1,"inconclusive: 12.6 µM [inhibitor, partial curve, poor fit]",–
CCOC(=O)c1ccc(NC(=O)C2CCCN(c3ccc(Sc4ccc(C)cc4)nn3)C2)cc1 (stereo not drawn),–,inactive: 12.1%
O=C(NCc1ccccn1)C1CCC(=O)N1C1CCCC1 (stereo not drawn),"inconclusive: 5.01 µM [inhibitor, full curve]",–
N#Cc1ccc(CN2C(=O)c3ccccc3Sc3ccc(C(=O)OCc4ccco4)cc32)cc1,–,inactive: -6.96%
Cc1cc(NC(=O)CSc2ncnc3c2cnn3-c2cccc(Cl)c2)no1,–,inactive: -3.5%
O=C(N/N=C/c1cc2c(cc1Br)OCO2)c1cc2ccccc2o1,"inconclusive: 12.6 µM [inhibitor, single point]",–
Oc1ccc(Nc2ccnc3cc(Cl)ccc23)cc1,"inconclusive: 8.91 µM [inhibitor, partial curve]",–
CC1CCCC(C)N1NC(=S)Nc1ccc(OC(F)F)cc1 (stereo not drawn),"inconclusive: 12.6 µM [inhibitor, single point]",–
COc1cc2c(C(=O)NCc3ccc4c(c3)OCO4)cn(CC(C)C)c(=O)c2cc1OC,"inconclusive: 10 µM [inhibitor, single point]",–
O=C(Nc1ccc(N2CCN(C(=O)c3ccco3)CC2)c(Cl)c1)c1cc2ccccc2o1,"inconclusive: 10 µM [inhibitor, partial curve]",–
Cc1cccc(C2c3[nH]c4ccccc4c3CCN2Cc2cccn2-c2ncccn2)c1 (stereo not drawn),"inconclusive: 11.2 µM [inhibitor, single point]",–
O=C(CCc1ccccc1)NC(=S)Nc1ccccc1[N+](=O)[O-],"inconclusive: 8.91 µM [inhibitor, partial curve]",–
COc1ccc(/C=C/C(=O)C2(O)CCCCC2)cc1,"inconclusive: 28.2 µM [inhibitor, single point]",–
CCC(=O)Nc1nonc1-c1nc2ccccc2n1Cc1cccc2ccccc12,"inconclusive: 0.562 µM [inhibitor, full curve, poor fit]",–
CN(Cc1ccccc1)C(=O)CN1C(=O)COc2ccc(S(=O)(=O)N3CCCC3)cc21,–,inactive: -9.14%
COc1ccc2[nH]c(CN3CCC(CO)(CCOc4ccccc4)CC3)c(C)c2c1,"inconclusive: 28.2 µM [inhibitor, single point]",–

Compound,Potency,"activity change, negative = inhibition"
CCCC(=O)OCCNc1cc(Sc2nccn2C)c2nonc2c1[N+](=O)[O-],"inconclusive: 14.1 µM [inhibitor, single point]",–
CCN(CC)C(=O)CSc1nc(-c2cccs2)cc(-c2cccs2)c1C#N,–,inactive: -5.45%
COc1ccc2nc(C)cc(Nc3ccc(C)cc3)c2c1,"inconclusive: 11.2 µM [inhibitor, partial curve, poor fit]",–
COc1ccccc1N1CC(C(=O)OC(C)C(=O)N2CCCc3ccccc32)CC1=O (stereo not drawn),–,inactive: -5.2%
Cc1nc(NC(=O)Nc2ccc(Cl)cc2)sc1C,–,inactive: -4.24%
O=C(NCc1ccc(S(=O)(=O)NC2CCCCC2)s1)c1ccccc1,"inconclusive: 28.2 µM [inhibitor, single point]",–
CCN(CC)c1ccc(C(=O)O)cc1,–,inactive: 9.11%
Cc1c(NC(=O)CSc2cccc3cccnc23)c(=O)n(-c2ccccc2)n1C,"inconclusive: 10 µM [inhibitor, partial curve, poor fit]",–
COC(=O)C1=C(C)N(Cc2ccccc2)C(=S)N[C@H]1c1cccc(F)c1,"inconclusive: 28.2 µM [inhibitor, single point]",–
COc1ccc(C2N=C(c3ccccc3)NO2)cc1OC (stereo not drawn),–,inactive: 5.04%
CCCCCCCCN1C(=O)[C@H](CC(=O)NCC23CC4CC(CC(C4)C2)C3)C[C@@]2(C(=O)OCC)CCCC=C12,–,inactive: 4.17%
CCN(CC)CCn1c(NCc2nc3ccccc3n2Cc2ccccc2)nc2ccccc21,"inconclusive: 6.31 µM [inhibitor, partial curve]",–
CC(=O)N1CCc2cc(N=NC3=C(O)CCCC3=O)ccc21,"inconclusive: 7.94 µM [inhibitor, partial curve]",–
COc1cc(O)c(C=NN2C(=O)CSC2=S)c(OC)c1,"inconclusive: 28.2 µM [inhibitor, partial curve, poor fit]",–
CC(=O)COc1cc(C)cc2oc(=O)c(C)c(C)c12,–,inactive: 0.808%
CN(Cc1ccccc1)C(=O)c1[nH]cnc1C(=O)Nc1cccc(Cl)c1,"inconclusive: 1 µM [inhibitor, full curve, poor fit]",–
Cc1cc(/C=N/n2cnnc2)c(C)n1-c1ccc(OCc2ccc(Cl)cc2)cc1,"inconclusive: 11.2 µM [inhibitor, partial curve, poor fit]",–
CCOC(=O)c1c(NC(C)=O)sc2c(OCC(O)CNC(C)(C)C)c(Br)ccc12 (stereo not drawn),"inconclusive: 28.2 µM [inhibitor, single point]",–
COc1cccc(-c2ccc(NC(=O)C3CCCN(Cc4cnc(C)s4)C3)cc2)c1 (stereo not drawn),"inconclusive: 28.2 µM [inhibitor, single point]",–
CCCCNc1nc(NCc2ccccc2)nc2ccccc12,"inconclusive: 28.2 µM [inhibitor, single point]",–
O=C(Nc1cc(C(F)(F)F)ccc1N1CCOCC1)c1n[nH]c(=O)c2ccccc12,"inconclusive: 28.2 µM [inhibitor, single point]",–
Cc1ccccc1C(=O)Nc1ccccc1C(=O)N/N=C\c1ccco1,–,inactive: -11.9%
